Test results from PubChem BioAssay AID624296 (National Center for Advancing Translational Sciences (NCATS), 2012).
The campaign covered roughly 350,000 compounds. About 9,900 (2.8%) were called active. This list was built around the results that the source calls inconclusive (neither active nor inactive); the mix of calls is not that of the screen. Calls come from the whole dose curve; as a rule, active = well fitted activation curve with a large enough effect; inconclusive = small, poorly fitted or top-dose-only effect; inactive = no such curve, though single readings can be large or run the other way. Potencies of inconclusive entries are left out as doubtful fits. Some compounds were tested as several samples or in several runs, with calls that do not always agree.

Assay: A quantitative high throughput screen for small molecules that induce DNA re-replication in MCF 10a normal breast cells. For activity, positive = re-replication: % of control where 0% means no effect. Note: nearly all actives have a fitted effect of over 50% in size.
Conditions: MCF 10A DNA re-replication, Hoechst nuclear intensity, 48 h; activity, positive = re-replication: at 46.1 µM (top of the series)
Potency is the fitted concentration of half-maximal effect; tags give direction and shape of the fitted curve.

Row | Compound | activity, positive = re-replication | Potency
1 | COc1cc(OC)c(OC)cc1/C=N/NC(=S)NCCN1CCOCC1 | inactive: -1.85% | –
2 | N#C/C(=C\c1cccc([N+](=O)[O-])c1)C(=O)NCc1ccc(Cl)cc1 | – | inconclusive [activator, single point]
3 | Oc1c(Cl)cc(Cl)c(Cl)c1Cc1c(O)c(Cl)cc(Cl)c1Cl | – | active: 0.92 µM
4 | Cc1ccc(C)c(Cn2nnc3c(=O)[nH]c(C4CCN(C(=O)c5ccco5)CC4)nc32)c1 | inactive: 7.73% | –
5 | O=C(Nc1ccccc1)C1CC(=O)N(c2ccc3c4c(cccc24)CC3)C1 (stereo not given) | – | inconclusive [activator, single point]
6 | COCC(=O)OC/C(O)=C(\C#N)c1nc2ccccc2[nH]1 | – | inconclusive [activator, single point]
7 | COC(=O)C1C2CC3c4[nH]c5cc(OC)ccc5c4CCN3CC2CC(OC(=O)CC(C)=O)C1OC (stereo not given) | – | inconclusive [activator, single point]
8 | N#Cc1ccc(C2=CC(=O)C[C@H](c3ccc4c(c3)OCO4)C2)cc1 | – | inconclusive [activator, single point]
9 | CC12CN3CC(C)(CN(C1)C3c1ccc3ccccc3c1O)C2=O (stereo not given) | – | inconclusive [activator, single point]
10 | O=C(CN1C(=O)/C(=C/c2ccccc2)SC1=S)Nc1cccnc1 | – | inconclusive [activator, partial curve, poor fit]
11 | O=C(C1CCC(=O)N(C2CCCC2)C1)N1CCN(Cc2cccc(F)c2)CC1 (stereo not given) | inactive: 0.57% | –
12 | COc1ccc(C2=NN(CN3C(=O)C(=O)c4ccccc43)C(c3cccc([N+](=O)[O-])c3)C2)cc1 (stereo not given) | – | inconclusive [activator, full curve, poor fit]
13 | CCOC(=O)c1cc2nc(OCC)nc(OCC)c2[nH]1 | inactive: -0.138% | –
14 | COC(=O)c1ccccc1NC(=O)N1CCN(S(=O)(=O)c2ccc(Cl)cc2)CC1 | – | inconclusive [activator, single point]
15 | COc1ccc(-c2coc3cc4oc(=O)c5ccccc5c4cc23)cc1F | – | inconclusive [activator, full curve, poor fit]
16 | COC(=O)c1[nH]c2ccc(C)cc2c1NC(=O)CN1CCCC(C)(C)C1 | – | inconclusive [activator, single point]
17 | Cc1ccc(S(=O)(=O)NCCC(=O)NC2CCCCCC2)cc1C | inactive: -0.207% | –
18 | CN(C)/C=C(/C(=O)c1ccccc1Cl)S(C)(=O)=O | – | inconclusive [activator, partial curve, poor fit]
19 | COc1ccc([N+](=O)[O-])cc1N(CC1CO1)S(=O)(=O)c1ccc(C)cc1 (stereo not given) | – | inconclusive [activator, single point]
20 | COc1ccccc1OCCNC(=O)C(c1ccccc1)c1ccccc1 | inactive: -2.37% | –
21 | CC(C)CC(NC(=O)OC(C)(C)C)c1cn([C@@H](CCCCNC(=O)OC(C)(C)C)C(=O)N2CCN(C(=O)OC(C)(C)C)CC2)nn1 (stereo not given in full) | – | inconclusive [activator, single point]
22 | CC1CCCC(NC(=O)CSc2ncccn2)C1C (stereo not given) | inactive: 4.52% | –
23 | CCCCN(Cc1ccco1)C(=O)c1cc2c(=O)[nH]c3ccc(C)cc3c2s1 | – | inconclusive [activator, partial curve, poor fit]
24 | C=CCc1c(C)nc(C)nc1N/N=C/c1ccccc1O | inactive: 18.7% | –

Row | Compound | activity, positive = re-replication | Potency
25 | COc1ccc(-c2c(C#Cc3ccsc3)c3cc(-c4ccc5cc[nH]c5c4)ccc3n2C)cc1 | – | active: 2.31 µM
26 | Cc1c(C(=O)NCCC2=CCCCC2)oc2ccc(S(=O)(=O)N3CCOCC3)cc12 | – | inconclusive [activator, partial curve, poor fit]
27 | COc1cccc(N/C=C/C(=O)c2ccc(OC)c(OC)c2)c1 | – | inconclusive [activator, partial curve]
28 | CN(CC1CCCN(CCc2cccc(C(F)(F)F)c2)C1)C(=O)c1cc2ccccc2o1 (stereo not given) | inactive: 18.3% | –
29 | CCCSc1ccc2nc(-c3ccccc3)cn2c1 | – | inconclusive [activator, single point]
30 | Cc1ccc(NC(=O)c2ccc(S(=O)(=O)N(C)c3ccccc3)cc2)cc1S(=O)(=O)N1CCOCC1 | inactive: 14.5% | –
31 | COCc1cc(C)nc(OCC(=O)N/N=C/c2ccc(C)cc2)c1C#N | – | inconclusive [activator, single point]
32 | CCc1ccccc1NC(=S)N=Nc1c(O)n(C)c2ccc(S(=O)(=O)N3CCOCC3)cc12 | – | inconclusive [activator, partial curve, poor fit]
33 | COc1cc(C(=O)Nc2cc(C)nn2-c2ccccc2)cc(OC)c1OC | – | inconclusive [activator, partial curve, poor fit]
34 | COCc1[nH]c(=S)c(C#N)cc1C(=O)OC | – | inconclusive [activator, full curve]
35 | CCCCOc1ccc(NC(=S)Nc2cc(C)nc(SCCCC)n2)cc1 | inactive: 18.2% | –
36 | CSc1ccc(CCNC(=O)Cn2ncc3c([nH]c4ccccc43)c2=O)cc1 | inactive: -0.124% | –
37 | CCOC(=O)c1cc2c(=O)n3ccccc3nc2n(CCOC)c1=NC(=O)c1c(-c2c(F)cccc2Cl)noc1C | – | active: 18.4 µM
38 | Brc1ccc(C2Nc3cccc4cccc(c34)N2)o1 | – | active: 14.6 µM
39 | COc1ccc(N(C(=O)c2snc(C(N)=O)c2N)C(C(=O)NC2CCCC2)c2cc(OC)ccc2OC)c(OC)c1 (stereo not given) | inactive: 28.6% | –
40 | Cc1ccc(C2C(C#N)=C(N)SC(N)=C2C#N)c(C)c1 | – | inconclusive [activator, single point]
41 | CC(=O)OCC(=O)C1(O)CCC2C3CC(C)C4=CC(=O)C=CC4(C)C3(F)C(O)CC21C (stereo not given) | inactive: 3.38% | –
42 | Oc1ccc(/C=N/Nc2ccc(C(F)(F)F)cn2)cc1O | – | inconclusive [activator, partial curve, poor fit]
43 | CCOC=C1C(=O)N(C(C)=O)c2cc(OC)c(OC)cc21 | inactive: -2.87% | –
44 | CCNC(=O)CN(c1ccc(Br)c(C)c1)S(C)(=O)=O | inactive: 13.8% | –
45 | Cc1cccc(NC(=O)c2onc3c2CCCC3)c1C | inactive: 17.7% | –
46 | CN(CC(=O)Nc1ccc(F)c(F)c1F)C(=O)C1CC(=O)N(c2ccc3c(c2)OCCO3)C1 (stereo not given) | – | inconclusive [activator, partial curve, poor fit]
47 | Cc1cc(NC(=O)c2cccc(COc3ccc(Br)cc3)c2)no1 | inactive: 6.52% | –
48 | CCCCn1c(N)c(N(CCOC)C(=O)COC(=O)CCOc2ccccc2C)c(=O)[nH]c1=O | inactive: -1.09% | –

Row | Compound | activity, positive = re-replication | Potency
49 | O=C(/C=C/c1ccncc1)c1ccc(NC(=O)c2ccccc2F)cc1 | – | active: 3.66 µM
50 | CC(=O)Nc1nc2ccccc2n1CCOc1ccccc1Cl | inactive: 20.7% | –
51 | c1ccc(-c2noc(CSc3nnc(Cc4cccs4)n3-c3ccccc3)n2)cc1 | – | inconclusive [activator, single point]
52 | CN(C)CCNC(=O)C(=O)Nc1ccc2c(c1)N(S(=O)(=O)c1cccs1)CCC2 | – | inconclusive [activator, single point]
53 | C/C(=N/Nc1nc(-c2ccccc2)c(CC(=O)O)s1)c1ccccc1 | – | inconclusive [activator, single point]
54 | COc1ccc(C(=O)NC2CCCc3c2cnn3-c2ccccc2F)cc1OC (stereo not given) | inactive: 11% | –
55 | O=C(COc1ccc(Br)cc1Cl)NC1CCN(Cc2ccccc2)CC1 | inactive: 4.4% | –
56 | Cc1ccc(SCc2nnc(N)s2)cc1 | – | inconclusive [activator, partial curve, poor fit]
57 | O=C(CC1CCCCC1)Nc1ccccc1-c1ccccc1 | – | inconclusive [activator, single point]
58 | O=C1CCC(C(=O)Nc2cccc(S(=O)(=O)N3CCOCC3)c2)N1 (stereo not given) | – | inconclusive [activator, single point]
59 | COc1ccccc1-c1noc2ncnc(Nc3cccc(C)c3)c12 | – | inconclusive [activator, single point]
60 | CCCCN(c1ccccc1)S(=O)(=O)c1cccc(C(=O)Nc2c(C)n(C)n(-c3ccccc3)c2=O)c1 | – | inconclusive [activator, full curve, poor fit]
61 | Cc1c(C(=O)O)oc2c(F)cccc12 | – | inconclusive [activator, single point]
62 | O=S(=O)(c1ccccc1)N1CCN(C(=S)Nc2ccc(F)cc2)CC1 | – | inconclusive [activator, full curve]
63 | COc1ccc(C(=O)CSc2nnc(CNc3ccc(C)cc3C)o2)cc1 | – | inconclusive [activator, full curve, poor fit]
64 | c1ccc(Oc2ccc(-c3ccnc4nc(N5CCOCC5)nn34)cc2)cc1 | – | active: 18.4 µM
65 | O=C1Nc2ccccc2/C1=C\c1cccn1-c1ccc(OC(F)(F)F)cc1 | – | inconclusive [activator, partial curve, poor fit]
66 | COc1ccccc1C(=O)NCC(=O)NC(C)CCc1ccccc1 (stereo not given) | – | inconclusive [activator, partial curve, poor fit]
67 | O=[N+]([O-])c1ccc(/C=N/Nc2ccccn2)cc1 | inactive: -8.41% | –
68 | Cc1cc(NC(=O)c2cc(-c3cccc(OCC(C)C)c3)nc3ccccc23)no1 | – | inconclusive [activator, single point]
69 | O=C(Nc1nc2ccccc2s1)C1CC(=O)N(c2ccc(Br)cc2)C1 (stereo not given) | – | inconclusive [activator, single point]
70 | Cc1cc(Cl)ccc1OCC(=O)NCC(c1cccs1)N1CCOCC1 (stereo not given) | inactive: -1.62% | –
